Test results published in the antibiotic and cytotoxicity screens of Wong et al. (2023).
The other results are listed elsewhere or left out.

Assays:
[1] = system: HSkMC (human skeletal muscle cells); assay: cytotoxicity call (relative viability < 0.9); details: 10 µM
[2] = system: HepG2; assay: cytotoxicity call (relative viability < 0.9); details: 10 µM
[3] = system: S. aureus RN4220; assay: growth inhibition call (relative growth <= 0.2); details: 50 µM

SMILES	cytotoxicity call [1]	cytotoxicity call [2]	growth inhibition call [3]
C[C@H]1CN([C@@H](C)CO)C(=O)c2cccc(NS(=O)(=O)c3cn(C)cn3)c2O[C@H]1CN(C)S(=O)(=O)c1ccc(F)cc1	inactive	inactive	inactive
C[C@H]1CN([C@@H](C)CO)C(=O)c2cccc(NC(=O)Nc3ccc(F)cc3)c2O[C@@H]1CN(C)S(=O)(=O)c1cn(C)cn1	inactive	active	inactive
CN(C)CC(=O)N[C@H]1CC[C@H](CCNC(=O)C2CC2)O[C@@H]1CO	inactive	inactive	inactive
Cc1noc(C)c1NC(=O)Nc1ccc2c(c1)C(=O)N([C@H](C)CO)C[C@H](C)[C@H](CN(C)S(=O)(=O)c1ccccc1)OCCCC[C@@H](C)O2	inactive	inactive	inactive
CN1CCC2(CC1)CN(C(=O)CNC(N)=O)CCCN2C	inactive	inactive	inactive
O=C(C[C@@H]1CC[C@H]2[C@@H](COC[C@@H](O)CN2S(=O)(=O)c2ccccc2Cl)O1)NCCc1ccncc1	inactive	inactive	inactive
O=c1[nH]c(=O)c2cc(Br)ccc2[nH]1	inactive	active	inactive
C[C@H](CO)N1C[C@H](C)[C@@H](CN(C)S(=O)(=O)c2cccs2)OCCCC[C@H](C)Oc2ccc(NS(C)(=O)=O)cc2C1=O	inactive	inactive	inactive
COc1ccc(NC(=O)N(C)C[C@H]2OCCCC[C@H](C)Oc3ccc(NS(=O)(=O)c4ccc(C)cc4)cc3C(=O)N([C@@H](C)CO)C[C@@H]2C)cc1	inactive	inactive	inactive
C[C@@H]1CN([C@@H](C)CO)S(=O)(=O)c2ccc(C#Cc3ccccc3)cc2O[C@@H]1CN(C)S(=O)(=O)c1ccccc1F	inactive	inactive	inactive
C[C@@H]1CCCCO[C@H](CN(C)Cc2ccc(C(F)(F)F)cc2)[C@H](C)CN([C@H](C)CO)C(=O)c2cc(NC(=O)CCCN(C)C)ccc2O1	inactive	inactive	inactive
C[C@H](CO)N1C[C@H](C)[C@H](CN(C)Cc2ccccc2)Oc2ccc(NC(=O)CCCCCC(=O)Nc3ccccc3N)cc2CC1=O	inactive	inactive	inactive
C[C@H](CO)N1C[C@H](C)[C@H](CN(C)S(C)(=O)=O)Oc2ccc(NC(=O)Nc3ccc(C(F)(F)F)cc3)cc2CC1=O	inactive	inactive	inactive
C[C@H]1CN([C@@H](C)CO)C(=O)CCCn2nncc2CO[C@@H]1CN(C)C(=O)Nc1ccc2c(c1)OCO2	inactive	inactive	inactive
Cc1ccc(S(=O)(=O)N(C)C[C@@H]2Oc3ccc(NC(=O)Nc4cccc5ccccc45)cc3C(=O)N([C@H](C)CO)C[C@@H]2C)cc1	inactive	inactive	inactive
COc1cccc(S(=O)(=O)N(C)C[C@@H]2Oc3ncc(C#CCN(C)C)cc3C(=O)N([C@H](C)CO)C[C@H]2C)c1	inactive	inactive	inactive
C[C@@H]1CCCCO[C@@H](CN(C)C(=O)Nc2ccc(F)cc2)[C@H](C)CN([C@@H](C)CO)C(=O)c2cc(NC(=O)c3ccccc3)ccc2O1	inactive	inactive	inactive
C[C@@H]1CN([C@H](C)CO)C(=O)c2cc(NC(=O)CCN3CCOCC3)ccc2O[C@@H]1CN(C)S(C)(=O)=O	inactive	inactive	inactive
C/C(=N\N)c1ccc2ccccc2c1	inactive	inactive	inactive

SMILES	cytotoxicity call [1]	cytotoxicity call [2]	growth inhibition call [3]
COc1ccc(S(=O)(=O)Nc2ccc3c(c2)CC(=O)N([C@H](C)CO)C[C@H](C)[C@H](CN(C)S(=O)(=O)c2cn(C)cn2)O3)cc1	inactive	inactive	inactive
C[C@H]1CN([C@@H](C)CO)C(=O)c2cccc(NS(C)(=O)=O)c2O[C@H]1CN(C)S(C)(=O)=O	inactive	inactive	inactive
C[C@@H]1CN([C@H](C)CO)C(=O)c2cccc(NC(=O)c3nc4ccccc4s3)c2O[C@@H]1CN(C)C(=O)Nc1ccc(F)cc1	inactive	inactive	inactive
C[C@H](CO)N1C[C@H](C)[C@@H](CN(C)C(=O)Nc2ccc(C(C)(C)C)cc2)OCc2cnnn2CCCC1=O	inactive	inactive	inactive
C[C@H](CO)N1C[C@H](C)[C@H](CN(C)Cc2ccccc2)OCCCC[C@H](C)Oc2ccc(NC(=O)CCC(F)(F)F)cc2C1=O	inactive	inactive	inactive
C[C@@H]1CN([C@@H](C)CO)C(=O)c2cc(NC(=O)Nc3cccc4ccccc34)ccc2O[C@@H]1CN(C)Cc1ccccc1	inactive	active	inactive
CC(=O)O[C@H](C[C@H](O)[C@@](C)(CCC=C(C)C)O[C@H]1O[C@@H](CO)[C@@H](O)[C@@H](O)[C@@H]1O)/C(C)=C/COC[C@@H](O)[C@@H](O)[C@@H](O)[C@@H](O)CO	inactive	inactive	inactive
CO[C@H]1CN(C)C(=O)c2ccc(NS(=O)(=O)c3ccccc3)cc2OC[C@@H](C)N(C(=O)NC(C)C)C[C@H]1C	inactive	inactive	inactive
O=C1c2ccccc2C(=O)c2c(O)c(O)cc(O)c21	inactive	inactive	inactive
NC(=O)c1ccccc1F	inactive	inactive	inactive
O=S(=O)(NCc1ccco1)N1CCOCC1	inactive	inactive	inactive
C[C@@H]1CCCCO[C@@H](CN(C)Cc2ccc3c(c2)OCO3)[C@@H](C)CN([C@@H](C)CO)C(=O)c2cc(NC(=O)Nc3ccc(C(F)(F)F)cc3)ccc2O1	active	active	inactive
C[C@@H]1CN([C@@H](C)CO)S(=O)(=O)c2ccc(C#Cc3ccccc3)cc2O[C@H]1CN(C)C(=O)c1ccccn1	inactive	inactive	inactive
O=c1c(O)cc([C@H]2Oc3cc(O)cc(O)c3C[C@H]2O)c2cc([C@H]3Oc4cc(O)cc(O)c4C[C@H]3O)cc(O)c(O)c1-2	inactive	inactive	inactive
C[C@@H]1CN([C@H](C)CO)C(=O)c2cccc(NC(=O)c3cnccn3)c2O[C@@H]1CN(C)S(=O)(=O)c1ccccc1	inactive	inactive	inactive
CC(C)CC#Cc1cnc2c(c1)C(=O)N([C@@H](C)CO)C[C@@H](C)[C@H](CN(C)S(=O)(=O)c1cccs1)O2	inactive	inactive	inactive
COc1cccc(NC(=O)N(C)C[C@H]2OCc3ccccc3-c3c(n(C)c4ccccc34)C(=O)N([C@@H](C)CO)C[C@H]2C)c1	inactive	inactive	inactive
Cc1ccc(S(=O)(=O)N(C)C[C@H]2Oc3ncc(Br)cc3C(=O)N([C@@H](C)CO)C[C@H]2C)cc1	inactive	inactive	inactive
COc1ccc(NC(=O)N(C)C[C@@H]2Oc3ccc(NC(=O)CCCCCC(=O)Nc4ccccc4N)cc3CC(=O)N([C@H](C)CO)C[C@H]2C)cc1	inactive	inactive	inactive

SMILES	cytotoxicity call [1]	cytotoxicity call [2]	growth inhibition call [3]
Nc1ccc(S(N)(=O)=O)cc1	inactive	inactive	inactive
C[C@@H]1CCCCO[C@H](CN(C)C(=O)Nc2ccc(C(F)(F)F)cc2)[C@H](C)CN([C@H](C)CO)C(=O)c2cc(NC(=O)c3ccncc3)ccc2O1	inactive	inactive	inactive
COc1ccc([Si](C)(C)[C@@H]2[C@@H](CCO)O[C@]3(C(=O)N(Cc4ccccc4)c4ccc(N(C=O)c5ccccc5)cc43)[C@H]2C)cc1	inactive	active	inactive
C[C@H]1CN([C@@H](C)CO)C(=O)c2cccc(NS(C)(=O)=O)c2O[C@@H]1CN(C)S(=O)(=O)c1ccc(F)cc1	inactive	inactive	inactive
CN(C)c1ccc(CN)cn1	inactive	inactive	inactive
CN1CCN(CC#N)C(=O)C12CCN([C@H]1CCOC1)CC2	inactive	inactive	inactive
C=C1CC(=O)C2=C(C)C[C@H](O[C@@H]3O[C@H](CO)[C@@H](O)[C@H](O)[C@H]3O)[C@H]3C(=C)C(=O)O[C@@H]3[C@@H]12	inactive	inactive	inactive
CCN1[C@@H]2c3ccc(-c4ccc(C(=O)N(C)C)cc4)c(=O)n3C[C@@H]2[C@@H](CO)[C@@H]1C(=O)NCCOC	inactive	inactive	inactive
C[C@@H]1CN([C@H](C)CO)C(=O)c2cc(NC(=O)CCN3CCOCC3)ccc2O[C@@H]1CN(C)S(=O)(=O)c1cn(C)cn1	inactive	inactive	inactive
NCc1ccccc1F	inactive	inactive	inactive
N[C@@H]1CCN(O)C1=O	inactive	inactive	inactive
CC(O)(CN)CCc1ccccc1 (stereo unspecified)	inactive	inactive	inactive
Cc1ccc(-c2ccc3c(c2)O[C@@H](CN(C)Cc2cncnc2)[C@@H](C)CN([C@@H](C)CO)S3(=O)=O)cc1	inactive	inactive	inactive
COc1ccc(S(=O)(=O)N(C)C[C@@H]2Oc3ccc(NS(=O)(=O)c4ccc(F)cc4)cc3C(=O)N([C@@H](C)CO)C[C@H]2C)cc1	inactive	inactive	inactive
COCC(=O)Nc1ccc2c(c1)OC[C@@H](C)N(Cc1cccc(F)c1)C[C@@H](C)[C@H](OC)CN(C)C2=O	inactive	inactive	inactive
CC(=O)O[C@H]1[C@@H](OC(C)=O)C(C)(C)/C=C/[C@@](C)(O)C(=O)[C@]2(O)[C@H]([C@@H](OC(C)=O)[C@](C)(OC(C)=O)[C@H]2OC(C)=O)[C@H]2OC(=O)CC[C@@]2(OC(C)=O)[C@@H]1OC(=O)C(C)C	inactive	inactive	inactive
CCS(=O)(=O)NCC[C@H]1CC[C@@H](NC(=O)Cc2ccccn2)[C@H](CO)O1	inactive	inactive	inactive
COc1ccc([Si](C)(C)[C@H]2[C@H](CC(=O)N3CCC[C@H]3CO)O[C@@]3(C(=O)N(Cc4ccc(N5CCCCC5=O)cc4)c4ccccc43)[C@@H]2C)cc1	inactive	inactive	inactive
COc1ccc(NC(=O)Nc2ccc3c(c2)C(=O)N([C@@H](C)CO)C[C@H](C)[C@@H](CN(C)C(=O)Nc2ccc(F)cc2)OCCCC[C@H](C)O3)cc1	inactive	inactive	inactive
